PubChem BioAssay AID1460 (National Center for Advancing Translational Sciences (NCATS), 2008)
Out of some 270,000 compounds screened, about 5,800 (2.1%) were called active. Inconclusive results, whose numbers are uncertain, are shown with a selection of clear calls. Calls follow the shape of the dose curve; as a rule, active = well fitted inhibition curve with a large enough effect; inconclusive = small, poorly fitted or top-dose-only effect; inactive = flat fitted curve, though single readings scatter. Where the call is inconclusive, the potency comes from a doubtful curve fit.

Target: Microtubule-associated protein tau (Homo sapiens) (UniProt P10636)
Assay: qHTS for Inhibitors of Tau Fibril Formation, Thioflavin T Binding; also: nearly all actives have a fitted effect of over 55% in size
Conditions: recombinant tau K18 P301L (four-repeat tau fragment), heparin-induced fibrillization, ThT fluorescence; series mostly up to 57.4 µM
Method in brief: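 Heparin-induced fibrillization of the P301L-mutant K18 repeat-domain fragment of human tau was followed by ThT binding in quantitative high-throughput format.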
Potency is read from the fitted curve at half-maximal effect; tags tell the direction and shape of the fitted curve.

UniProt P10636, sequence (P10636 whole entry, looked up): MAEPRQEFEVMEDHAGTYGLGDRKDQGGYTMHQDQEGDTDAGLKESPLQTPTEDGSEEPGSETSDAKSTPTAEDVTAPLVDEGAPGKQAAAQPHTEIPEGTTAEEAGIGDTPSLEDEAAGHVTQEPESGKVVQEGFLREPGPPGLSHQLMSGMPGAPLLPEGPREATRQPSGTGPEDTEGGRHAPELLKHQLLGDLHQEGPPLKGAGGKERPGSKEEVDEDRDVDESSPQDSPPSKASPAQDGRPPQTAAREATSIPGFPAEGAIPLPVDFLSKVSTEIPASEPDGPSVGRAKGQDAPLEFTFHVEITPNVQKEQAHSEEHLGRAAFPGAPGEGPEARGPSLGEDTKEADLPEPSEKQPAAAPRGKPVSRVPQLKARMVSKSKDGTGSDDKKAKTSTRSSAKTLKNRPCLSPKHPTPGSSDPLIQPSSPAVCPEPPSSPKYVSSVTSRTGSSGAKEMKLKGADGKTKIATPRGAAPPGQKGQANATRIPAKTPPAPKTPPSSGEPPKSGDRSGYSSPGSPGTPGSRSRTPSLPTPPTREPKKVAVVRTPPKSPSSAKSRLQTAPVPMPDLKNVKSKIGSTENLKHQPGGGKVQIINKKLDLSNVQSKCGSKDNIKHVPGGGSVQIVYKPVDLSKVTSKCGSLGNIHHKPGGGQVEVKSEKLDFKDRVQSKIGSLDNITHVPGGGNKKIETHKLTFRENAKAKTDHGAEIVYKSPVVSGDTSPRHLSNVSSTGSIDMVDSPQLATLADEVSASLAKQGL

| Compound | Potency |
| --- | --- |
| CCC(C(=O)Nc1ccc(C)c(C)c1)n1c(=O)c(C(F)(F)F)nc2ccccc21 (configuration not stated) | inactive |
| CCOc1ccc(NC(=O)CCc2c(C)nn(-c3ccc(N4CCCC4)nn3)c2C)cc1 | inconclusive: 10 µM [inhibitor, partial curve] |
| COc1ccc(-c2nc(-c3ccccc3)c(Nc3ccc4ccccc4c3)o2)cc1 | inconclusive: 25.1 µM [inhibitor, partial curve] |
| CC(=O)Nc1ccc(OCC(O)CNC2CCCC2)cc1 (configuration not stated) | inconclusive: 28.2 µM [inhibitor, single point] |
| COc1ccc(N=C2C(=O)Nc3ccccc32)cc1 | inconclusive: 22.4 µM [inhibitor, single point] |
| O=[N+]([O-])c1cc(S(=O)(=O)Nc2ccccc2)ccc1N1CCN(c2ccc(O)cc2)CC1 | inactive |
| CCOC(=O)CNC(=O)O[C@@H]1Cc2cc(OC)ccc2O[C@H]1c1cccc(OC)c1 | inactive |
| CC1(C)CC(=O)C/C(=N/NC(=O)c2ccc(-c3ccccc3)cc2)C1 | inconclusive: 12.6 µM [inhibitor, partial curve] |
| CC1(C(=O)O)NCCc2cc(O)c(O)cc21 (configuration not stated) | active: 20 µM |
| Cl/C(=C\n1cncn1)c1ccc(Cl)cc1Cl | inconclusive: 44.7 µM [inhibitor, single point] |
| C/C(=N\NC(=O)c1ccccc1)c1ccc(-n2ccnc2)cc1 | inconclusive: 4.47 µM [inhibitor, full curve] |
| Cc1ccc(Nc2nc(N)c([N+](=O)[O-])c(NCCO)n2)cc1 | inconclusive: 15.8 µM [inhibitor, partial curve] |
| Cc1ccc(N=c2c([N+](=O)[O-])nn(-c3ccccc3)n2O)c(C)c1 | inconclusive: 15.8 µM [inhibitor, partial curve] |
| CCc1ccc2[nH]c(=O)c(C(c3nnnn3CCOC)N3CCN(c4ccccc4)CC3)cc2c1 (configuration not stated) | inconclusive: 39.8 µM [inhibitor, single point] |
| O=C1C=CC2=C3c4cc(O)c(O)cc4C[C@]3(O)COC2=C1 | active: 15.8 µM |
| Cc1ccc(C(=O)N2C(=S)C(c3ccc(F)cc3)=NC23CCN(C)CC3)cc1 | inconclusive: 17.8 µM [inhibitor, single point] |
| NC(N)=NCCC[C@@H](N)C(=O)O | inactive |
| COc1cc(-c2noc(-c3ccc(NCC4CCCO4)c([N+](=O)[O-])c3)n2)cc(OC)c1OC (configuration not stated) | inactive |
| O=c1c2cc(Cl)ccc2[nH]c(=S)n1Cc1cccs1 | inactive |
| CCOc1ccc(C(=O)Oc2ccc(NC(C)=O)cc2)cc1 | inactive |
| CCOC(=O)C(NC(C)=O)(N1CCOCC1)C(F)(F)F (configuration not stated) | inconclusive: 35.5 µM [inhibitor, single point] |
| Cc1ccc(-c2ccccc2)n1-c1ccc(C(=O)O)cc1 | inconclusive: 39.8 µM [inhibitor, single point] |
| COc1ccc(C(=O)COC(=O)COc2ccc(C)c(C)c2)cc1 | inconclusive: 2.51 µM [inhibitor, partial curve] |
| COC(=O)N1CCCc2cc(S(=O)(=O)NCc3ccccc3)ccc21 | inactive |

| Compound | Potency |
| --- | --- |
| CCOc1ccc(NC(=O)c2sc3nc4n(c(=O)c3c2C)CCC4)cc1 | inconclusive: 17.8 µM [inhibitor, partial curve] |
| Nc1nc2c(s1)CC(c1ccccc1)CC2 (configuration not stated) | inconclusive: 3.98 µM [inhibitor, single point] |
| CN(C)c1ccnc(N(Cc2ccccc2)Cc2ccccc2)c1C#N | inactive |
| CC1=CC2=NC(=O)/C(=C\c3ccc(-c4cccc(Cl)c4)o3)C(=N)N2O1 | inactive |
| COc1ccc(NS(=O)(=O)CC(C)C)c(OC)c1 | inconclusive: 39.8 µM [inhibitor, single point] |
| Cc1ccc2oc(-c3ccc(NC(=O)CCC(=O)O)cc3)nc2c1 | inactive |
| Cc1ccc(NC(=O)CCc2c(C)nc3c(-c4ccc(F)cc4)c(C)nn3c2C)cc1F | inactive |
| CC(C)=CCC1=C(OCC(=O)O)C(=O)c2ccccc2C1=O | inconclusive: 39.8 µM [inhibitor, single point] |
| CCn1cc2nc(SCC(=O)Nc3cc(OC)cc(OC)c3)n(Cc3ccc(Cl)cc3)c(=O)c2n1 | inconclusive: 10 µM [activator, partial curve, poor fit] |
| O=c1c2cccc(Cl)c2nc2n1Cc1ccccc1-2 | inconclusive: 35.5 µM [inhibitor, single point] |
| Cc1ccc([N+](=O)[O-])cc1-c1ccc(/C=N/NC(=O)c2cc3c(ccc4ccccc43)o2)o1 | inconclusive: 2.51 µM [inhibitor, full curve] |
| COc1cc(C(C2=C(O)CC(C)(C)CC2=O)C2C(=O)CC(C)(C)CC2=O)cc(OC)c1OC (configuration not stated) | inconclusive: 5.01 µM [inhibitor, full curve] |
| O=c1c(F)cn(C2CCCO2)c(=O)n1Cc1ccc(Cl)cc1 (configuration not stated) | inactive |
| O=C(Oc1nsnc1N1CCOCC1)c1ccccc1 | inconclusive: 31.6 µM [inhibitor, partial curve] |
| CC(=O)c1ccc(N2CCN(S(=O)(=O)c3ccc(-c4coc(C)n4)cc3)CC2)cc1 | inactive |
| COc1ccccc1NC(=O)c1cc(Cl)nc2ccccc12 | inconclusive: 39.8 µM [inhibitor, single point] |
| NC(=O)CC(NC(=O)c1ccccc1)c1ccc(NC2CCCC2)c([N+](=O)[O-])c1 (configuration not stated) | inconclusive: 0.224 µM [inhibitor, full curve, poor fit] |
| N[C@@H](Cc1cc(I)c(Oc2ccc(O)c(I)c2)c(I)c1)C(=O)O | inconclusive: 1.58 µM [inhibitor, partial curve] |
| O=c1c(-c2ccnn2-c2ccc(F)cc2)cnc2n1CCS2 | inactive |
| Cc1ccccc1COC[C@H](CC(C)C)N1CCN(C(=O)c2cccc(C(F)(F)F)c2)CCC1=O | inconclusive: 17.8 µM [inhibitor, partial curve] |
| N#CC1=C(O)C(c2ccccc2)n2c1nc(=O)c1ccccc12 (configuration not stated) | inactive |
| COc1ccccc1NC(=O)c1ccc(-n2cccn2)c([N+](=O)[O-])c1 | inconclusive: 22.4 µM [inhibitor, single point] |
| Brc1ccc(-c2noc(COc3ccc4c(c3)CCC4)n2)o1 | inconclusive: 5.62 µM [inhibitor, partial curve] |
| CC(=O)Nc1cccc(N/C=C(\C=O)c2nc3ccccc3o2)c1 | inconclusive: 14.1 µM [inhibitor, partial curve] |

| Compound | Potency |
| --- | --- |
| CCc1ccc(N(C2C=CS(=O)(=O)C2)S(=O)(=O)c2ccc(C)cc2)cc1 (configuration not stated) | inactive |
| Cc1cc(C)cc(NC(=O)CSc2nc3c(c(=O)[nH]2)CN(Cc2ccc(F)cc2)CC3)c1 | inconclusive: 22.4 µM [inhibitor, partial curve, poor fit] |
| CCn1cc(C(=O)Nc2cccc(Cl)c2)c2cc(OC)c(OC)cc2c1=O | inconclusive: 15.8 µM [inhibitor, single point] |
| CCCCOC(=O)Cn1c(=O)n(CC(=O)OCCCC)c2ccccc21 | inactive |
| COc1ccc(C2CC(=O)Nc3c2c(=O)[nH]c2nc4ccccc4n32)cc1 (configuration not stated) | inactive |
| CCCCNC(=O)Nc1cc(C(F)(F)F)c[nH]c1=O | inactive |
| COc1ccc(-c2nn3c(=O)cc(CN4CCN(C(=O)/C=C/c5ccccc5)CC4)nc3s2)cc1 | inconclusive: 0.708 µM [inhibitor, full curve, poor fit] |
| COc1ccc(CCC(C)Nc2cccc(C)c2)cc1 (configuration not stated) | inconclusive: 31.6 µM [inhibitor, single point] |
| COc1ccc(NC(=O)c2cc(C)n(Cc3cccs3)c2C)cc1 | inconclusive: 28.2 µM [inhibitor, single point] |
| CCOC(=O)c1cc2occc2n1Cc1c(F)cccc1Cl | inconclusive: 22.4 µM [inhibitor, partial curve] |
| CCc1ccc(CSc2nc(-c3ccccc3F)nc3c2Cc2c(CO)cnc(C)c2O3)cc1 | inactive |
| Cc1cccc(C)c1Nc1nnc(SCc2nc3ccccc3s2)s1 | inconclusive: 14.1 µM [inhibitor, partial curve] |
| Cc1ccc(NC2=Nc3ccccc3N3C2=Nc2c(c(C)nn2-c2ccccc2)C3c2ccc(O)c(O)c2)cc1 (configuration not stated) | inactive |
| CCn1c(SCC(=O)Nc2cc(C)c(Cl)cc2OC)nnc1-c1ccco1 | inconclusive: 39.8 µM [inhibitor, single point] |
| COc1cc2cc3c(N)c(C(=O)Nc4sc(C)c(C)c4C#N)sc3nc2cc1OC | active: 5.01 µM |
| COc1ccc(NC(=O)COC(=O)C23CC4CC(CC(Cl)(C4)C2)C3)c(OC)c1 | inconclusive: 39.8 µM [inhibitor, single point] |
| O=C(N/N=C/c1cccc(F)c1)c1cc(-c2ccco2)nc2ccccc12 | inconclusive: 15.8 µM [inhibitor, partial curve] |
| CNC(=O)[C@@]1(C)C=C[C@@H](Cc2ccccc2)N1C(=O)OC | inactive |
| CN=C(c1ccc([N+](=O)[O-])cc1)N1CCCCC1 | inactive |
| Cc1ccc(-c2cc(C(=O)Oc3ccc(C#N)cc3)no2)cc1 | inactive |
| CC(NC(=O)C1CCC1)c1ccc(Br)cc1 (configuration not stated) | inactive |
| CO/N=C/C(=N\Nc1ccc(C)cc1)C(=O)c1ccc(OC)cc1 | inconclusive: 20 µM [inhibitor, partial curve] |
| O=C(CSc1nccn1-c1cccc(Cl)c1)Nc1ccc2c(c1)OCO2 | inconclusive: 31.6 µM [inhibitor, single point] |
| CC(C)CC(=O)NC(=S)NNC(=O)c1ccc(NC(=O)C2CCCCC2)cc1 | inconclusive: 15.8 µM [inhibitor, partial curve] |
